# Test results taken from PubChem BioAssay (NCATS).
# Several values for one entry are separate records, joined by “and”; a condition that tells them apart may be missing. Equal values may be shown once. The inconclusive results got no clear call from the source; some entries with a clear call stand among them for comparison. Potencies beside an inconclusive call are fits to weak or partial responses and may not hold up. Activity calls are given as the source filed them. The call rests on the fitted dose curve; in most records, active means well fitted cell-killing curve with a large enough effect; inconclusive means small, poorly fitted or top-dose-only effect, or effect the other way; inactive means no such curve, though single readings can be large or run the other way.
# Assay: Viability qHTS for spleen associated tyrosine kinase inhibitor (SYKi) naive MV4-11 cells (AID 1963823); further: nearly all actives have a fitted effect of over 40% in size
# Conditions: MV4-11 AML viability, CellTiter-Glo luminescence, 72 h; series mostly up to 45 µM
# Procedure, shortened: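 SYKi-naive MV4-11 AML cells, 500 per well, were exposed to library compounds for 72 hr at 37 C, 5% CO2. Viability was then read by CellTiter-Glo luminescence after 10 min at room temperature.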
# Potency means the concentration at half of the fitted maximal effect; tags describe the fitted curve by direction and shape.
row,Structure (SMILES),Potency
1,O=Nc1c(-c2c(O)[nH]c3ccc(F)cc23)[nH]c2ccccc12,"inconclusive: 0.0517 µM [cytotoxic, full curve]"
2,Cc1ccc(NS(=O)(=O)c2ccc3c(c2)CCC(=O)N3)cc1C,active: 11.6 µM
3,C=CC(=O)Nc1cccc(Nc2nc(Nc3ccc(Oc4ccnc(C(=O)NC)c4)cc3)ncc2F)c1,active: 4.61 µM and active: 2.63 µM
4,CC(C)c1c(O)ccc2c1CC[C@H]1C(C)(C)CCC[C@]21C,"inconclusive: 16.4 µM [cytotoxic, partial curve]"
5,C=CC(=O)Nc1cccc(Oc2nc(Nc3ccc(N4CCN(C)CC4)c(F)c3)nc3[nH]ccc23)c1,"inconclusive: 0.296 µM [cytotoxic, full curve]"
6,CCOc1ccc(Cc2nc(-c3c(C)nc4ccccn34)cs2)cc1,active: 0.0366 µM
7,CC(=O)Nc1cc(Oc2ccc3c(nc(Nc4ccc(F)cc4F)n3C)c2C)ccn1,"inconclusive: 7.42 µM [cytotoxic, partial curve]"
8,O=c1cc(-c2ccccc2)oc2ccc(O)cc12,"inconclusive: 13 µM [cytotoxic, partial curve, poor fit]"
9,CCn1cc(C(=O)O)c(=O)c2cnc(N3CCNCC3)nc21,inactive
10,CC/C=C\C(O)C(O)C1=C(C)C(=O)C2(O1)C(=O)NC(OC)(C(=O)c1ccccc1)C2O (stereo unspecified),inactive
11,CCN1CCC[C@H]1CNC(=O)c1cc(S(N)(=O)=O)ccc1OC,inactive
12,Nc1nc(=O)n([C@@H]2O[C@H](CO)[C@@H](O)[C@@H]2F)cc1I,inactive
13,O=C(CNC(=O)c1cccc(C(F)(F)F)c1)N[C@@H]1CCN(Cc2ccc(Cl)cc2)C1,"inconclusive: 18.4 µM [cytotoxic, partial curve]"
14,CC(C)=CCCC1(C)Oc2cc3c(c4c2C2C(O4)C(C)(O)CCC21)CN(C(CCC(=O)O)C(=O)O)C3=O (stereo unspecified),inactive
15,CCCCCCCOc1cc2c(cc1/C(C)=C/c1ccc(C(=O)O)cc1)C(C)(C)CCS2(=O)=O,"inconclusive: 23.1 µM [cytotoxic, single point]"
16,COc1ccc(C2C(=O)c3ccccc3C2=O)cc1,inactive

row,Structure (SMILES),Potency
1,CCn1c(-c2nonc2N)nc2c(C#CC(C)(C)O)ncc(OCC3CCCNC3)c21 (stereo unspecified),active: 13 µM
2,C/C=C(\C)C(=O)O[C@H]1C=CC(=O)O[C@H]1/C=C/[C@@H](O)[C@H](C)O,"inconclusive: 5.8 µM [cytotoxic, partial curve]"
3,Nc1nc2c(nc(Br)n2[C@@H]2O[C@@H]3COP(=O)(O)O[C@H]3[C@H]2O)c(=O)[nH]1,inactive
4,C[C@]12C=C[C@@]3(CCC4[C@](C)(CO)CCC[C@@]4(C)C3CC1)C2 (stereo partly specified),"inconclusive: 29.1 µM [cytotoxic, single point]"
5,O=C(/C=C/c1ccc(O)cc1)OCC1=C[C@@H](O)[C@@H]2C=CO[C@@H](O[C@@H]3O[C@H](CO)[C@@H](O)[C@H](O)[C@H]3O)[C@H]12,inactive
6,CC12CCC(OC3OC(CO)C(O)C(OC4OC(CO)C(O)C(O)C4O)C3O)CC1CCC1C2CCC2(C)/C(=C3/COC(=O)C3)CCC12O (stereo unspecified),inactive
7,CC(=O)N[C@H](Cc1c[nH]c2ccccc12)C(=O)OCc1cc(C(F)(F)F)cc(C(F)(F)F)c1,"inconclusive: 18.4 µM [cytotoxic, single point]"
8,CC(=O)N1c2ccccc2C2(O)CC3C(=O)NC(CC(C)C)C(=O)N3C12 (stereo unspecified),inactive
9,CCN(CC)CCCS(=O)(=O)N[C@H](CCc1ccccc1)c1nc(Cc2ccc(Br)cc2)no1,active: 20.6 µM
10,COc1cc([C@@H]2c3cc4c(cc3[C@@H](O[C@@H]3O[C@@H]5CO[C@@H](c6cccs6)O[C@H]5[C@H](O)[C@H]3O)[C@H]3COC(=O)[C@H]23)OCO4)cc(OC)c1O,active: 0.0742 µM
11,O=C(OCCN1CCOCC1)c1cccnc1Nc1cccc(C(F)(F)F)c1,inactive
12,O=c1cc(NCCCN[C@@H]2CCOc3c(Br)cc(Br)cc32)[nH]c2ccsc12,active: 10.3 µM
13,CCC(CC)C(=O)OC12C(OC(=O)C(C)C)C(C)C3(O)C(C=C(CO)CC4(O)C(=O)C(C)=CC43)C1C2(C)C (stereo unspecified),active: 0.0282 µM
14,C=C1C(=O)OC2C=C(C)CC/C=C(\CO)CC(O)C12 (stereo unspecified),active: 10.3 µM
15,C=CCc1ccc(O[C@@H]2O[C@H](CO[C@@H]3O[C@H](CO)[C@@H](O)[C@H](O)[C@H]3O)[C@@H](O)[C@H](O)[C@H]2O)c(O)c1,inactive
